# The campaign covered roughly 270,000 compounds. About 620 (0.23%) were called active. Inconclusive means that the source gave no clear call. Such entries were picked first, then a sample of the others. Calls come from the whole dose curve; as a rule, active = well fitted inhibition curve with a large enough effect in the polarisation, with a control signal flat (not every such curve was filed as active); inconclusive = small, poorly fitted or top-dose-only effect, or effect the other way, or a change in a side signal; inactive = no such curve, though single readings can be large or run the other way; the % refers to the polarisation. A potency beside an inconclusive call is a rough fit, not a confirmed value. “Side channel” marks fits to a control or component signal instead of the main read-out.
# Target: Menin (Homo sapiens) (UniProt O00255)
# Chain of UniProt O00255 (O00255 whole entry, looked up): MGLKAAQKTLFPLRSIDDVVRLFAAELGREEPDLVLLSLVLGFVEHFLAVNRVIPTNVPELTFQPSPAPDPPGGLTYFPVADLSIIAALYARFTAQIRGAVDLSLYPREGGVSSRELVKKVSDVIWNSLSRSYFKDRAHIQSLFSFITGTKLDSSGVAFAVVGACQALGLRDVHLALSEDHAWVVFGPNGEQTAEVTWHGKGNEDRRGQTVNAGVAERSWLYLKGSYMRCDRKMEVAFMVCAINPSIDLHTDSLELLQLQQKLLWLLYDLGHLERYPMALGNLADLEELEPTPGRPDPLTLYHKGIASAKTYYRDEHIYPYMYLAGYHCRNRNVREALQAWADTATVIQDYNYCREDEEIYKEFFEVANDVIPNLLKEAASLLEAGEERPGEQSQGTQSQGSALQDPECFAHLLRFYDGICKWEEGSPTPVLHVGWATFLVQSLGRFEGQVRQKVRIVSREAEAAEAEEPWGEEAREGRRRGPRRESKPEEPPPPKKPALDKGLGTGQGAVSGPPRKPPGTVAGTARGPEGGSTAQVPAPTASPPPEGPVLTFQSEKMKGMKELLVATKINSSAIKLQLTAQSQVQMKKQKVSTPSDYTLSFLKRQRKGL
# Experiment: qHTS Assay for Inhibitors Targeting the Menin-MLL Interaction in MLL Related Leukemias: Competition With Texas Red Labeled MLL-derived Mutant Peptide; for FP activity change, negative = inhibition: % of control where 0% means no effect
# Conditions: fluorescence polarization; FP activity change, negative = inhibition: at 61.6 µM (top of the series)
# Potency is the fitted concentration of half-maximal effect; tags give direction and shape of the fitted curve or compound fluorescence and quenching.
Structure (SMILES),Potency,"FP activity change, negative = inhibition"
O=C(NC1CCCCC1)C(c1ccc(F)cc1)N(C(=O)Cc1ccsc1)c1ccc(F)cc1 (stereo not drawn),"inconclusive: 10 µM [inhibitor, partial curve]",–
CC(=O)Nc1ccc(OS(=O)(=O)c2ccc(Cl)cc2)cc1,"inconclusive: 17.8 µM [quencher, side channel, single point]",–
Cn1c(=O)c(NCCc2ccccc2)c2c3c(cccc31)C(=O)c1ccccc1-2,"inconclusive: 12.6 µM [fluorescent, side channel, partial curve]",–
COc1ccc(/C=N/n2cc(-c3ccccc3)nc2N)cc1,"inconclusive: 1.78 µM [inhibitor, partial curve, poor fit]",–
COc1cccc(-c2csc(N3CCN(C(=S)Nc4ccc(Cl)cc4)CC3)n2)c1,"inconclusive: 7.08 µM [inhibitor, single point]",–
CC(NC(=O)COc1cccc(Br)c1)C(=O)O (stereo not drawn),–,inactive: -12.3%
CCOC(=O)C1(Cc2ccccc2)CCCN(Cc2cccc(C(C)=O)c2)C1 (stereo not drawn),"inconclusive: 12.6 µM [fluorescent, side channel, partial curve]",–
CC(CCCC(C)(C)O)CC1C2=C(CCCC2=O)OC2=C1C(=O)CCC2 (stereo not drawn),"inconclusive: 10 µM [fluorescent, side channel, partial curve]",–
O=C(O)c1cc(-c2ccc(/C=N/NC(=S)Nc3ccccc3)o2)ccc1Cl,"inconclusive: 17.8 µM [quencher, side channel, single point]",–
CCN(CC)c1ccc(/C=N/NC(=O)Cc2nnc(NC(=O)Nc3ccccc3)s2)cc1,"inconclusive: 17.8 µM [quencher, side channel, partial curve]",–
O=C(O)c1cnn(-c2nc(-c3ccc(Cl)c(Cl)c3)cs2)c1C(F)(F)F,"inconclusive: 25.1 µM [quencher, single point]",–
COc1ccc(Br)cc1CNc1ccc(O)cc1,"inconclusive: 25.1 µM [quencher, side channel, single point]",–
COc1cccc(-c2nc(-c3ccc4c(c3)NC(=O)CO4)cs2)c1,"inconclusive: 3.98 µM [quencher, side channel, full curve]",–
CCOC(=O)CN1C(=O)/C(=C/c2ccccc2Br)Oc2ccccc21,"inconclusive: 14.1 µM [fluorescent, partial curve]",–
COc1ccc(Oc2ncc3nc(CCc4ccccc4)c(=O)n(C[C@H]4CCCO4)c3n2)cc1,–,inactive: -0.0786%
CCOC(=O)C1CCN(c2ncnc3c2c(-c2ccccc2)cn3-c2ccccc2)CC1,"inconclusive: 3.16 µM [fluorescent, side channel, full curve, poor fit]",–
CC(=O)C(C)Oc1ccc(Cc2ncc(C(F)(F)F)cc2Cl)cc1 (stereo not drawn),"inconclusive: 7.94 µM [fluorescent, side channel, full curve]",–
O=c1c(Cl)c(Cl)cnn1Cc1nnc(-c2ccc(Cl)cc2)o1,"inconclusive: 22.4 µM [quencher, side channel, single point]",–
Cc1cc(C)c(S(=O)(=O)NCCc2ccncc2)c(C)c1,"inconclusive: 39.8 µM [inhibitor, single point]",–

Structure (SMILES),Potency,"FP activity change, negative = inhibition"
COc1cccc(C(=O)N/N=C/C(Br)=C/c2ccccc2)c1,–,inactive: -5.01%
COc1cc(OC)c(OC)cc1/C=N/N(C)c1ccccc1,"inconclusive: 17.8 µM [quencher, side channel, partial curve]",–
C#CCn1c(=NC(=O)c2cccs2)sc2cccc(OC)c21,"inconclusive: 4.47 µM [quencher, side channel, full curve, poor fit]",–
COc1ccc(C2CC(c3ccc4ccccc4c3)=NN2C(=O)CN2CCC(C(N)=O)CC2)cc1 (stereo not drawn),"inconclusive: 1.58 µM [fluorescent, side channel, full curve]",–
CCCCOC1CC(c2ccc(OCc3ccc(OC)cc3)c(OC)c2)N(C)O1 (stereo not drawn),"inconclusive: 3.98 µM [fluorescent, side channel, full curve, poor fit]",–
Cc1ccc(C)c(Cn2nc(-c3cc(C)ccc3C)ccc2=O)c1,"inconclusive: 3.16 µM [fluorescent, side channel, full curve]",–
CC(CN1C(C)CCCC1C)OC(=O)c1cccc(F)c1 (stereo not drawn),"inconclusive: 4.47 µM [inhibitor, full curve]",–
COC(=O)c1sc2ccccc2c1N,"inconclusive: 28.2 µM [quencher, side channel, single point]",–
O=[N+]([O-])c1cc([N+](=O)[O-])c(Oc2c(F)cc(F)cc2F)cc1NN1CCCCC1,"inconclusive: 35.5 µM [quencher, side channel, single point]",–
CN(C)C=Nc1ncc2c3ccccc3n(Cc3ccccc3)c2c1C#N,–,inactive: -14.1%
O=C(NCCCO)c1c(O)c2cccc3c2n(c1=O)CCC3,–,inactive: -3.84%
COc1ccc(-c2nn(-c3ccccc3)cc2/C=N/Nc2ccc(S(N)(=O)=O)cc2[N+](=O)[O-])cc1OC,"inconclusive: 10 µM [quencher, side channel, partial curve]",–
Cc1ccc(C(=O)Nc2nnc(CC(=O)N/N=C/c3ccncc3)s2)cc1,–,inactive: 6.8%
CCOc1ccc(NC(=O)c2cc3ccccc3cc2OC)cc1,"inconclusive: 39.8 µM [quencher, side channel, single point]",–
Cn1nnnc1SCC(=O)NCc1ccc2c(c1)OCO2,"inconclusive: 22.4 µM [inhibitor, partial curve]",–
CC(C)(C)NC(=O)c1cc(NC(=O)c2ccco2)cc(NC(=O)c2ccco2)c1,"inconclusive: 35.5 µM [quencher, side channel, single point]",–
COC(=O)CCC(=O)OC1(C)C(=O)C=C2C=C(C3CC3)N(CCCOC(C)C)C=C2C1=O (stereo not drawn),"inconclusive: 6.31 µM [inhibitor, single point]",–
Fc1ccc(OCCOCCOc2cccc3[nH]ccc23)cc1,"inconclusive: 25.1 µM [quencher, partial curve]",–
CCOc1ccc(/C=C/C(=O)Nc2cccc(C(C)=O)c2)cc1,"inconclusive: 39.8 µM [inhibitor, single point]",–
